# PubChem BioAssay AID485294 (National Center for Advancing Translational Sciences (NCATS), 2010)
# In all, about 370,000 compounds went through this assay and about 150 (0.041%) were called active. The shares of active, inactive and inconclusive entries below differ from those in the screen. Calls come from the whole dose curve; as a rule, active = well fitted inhibition curve with a large enough effect; inconclusive = small, poorly fitted or top-dose-only effect; inactive = flat fitted curve, though single readings scatter. Potencies of inconclusive entries are left out as doubtful fits.
# Target: Beta-lactamase (Escherichia coli (strain K12)) (UniProt P00811)
# Test: qHTS Inhibitors of AmpC Beta-Lactamase (assay with detergent); note: nearly all actives have a fitted effect of over 25% in size;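 for activity change, negative = inhibition: 0% = no-compound wells and -100% = no-enzyme wells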
# Details: AmpC hydrolysis of nitrocefin, absorbance 480 nm, 0.01% Triton; activity change, negative = inhibition: at 114 µM (top of the series)
# Summary of the method: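 20 mM phosphate pH 7.0 + 0.01% (detergent screen) or 0.0001% Triton X-100; 5.3 nM AmpC reagent; cpd preinc 15 min RT; nitrocefin (800 uM stock) to start; A480 q20 s × 4 min; Activity was normalised to no-enzyme and no-compound control wells.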
# Potency is the fitted concentration of half-maximal effect; tags give direction and shape of the fitted curve.
# UniProt P00811, sequence (P00811 whole entry, looked up): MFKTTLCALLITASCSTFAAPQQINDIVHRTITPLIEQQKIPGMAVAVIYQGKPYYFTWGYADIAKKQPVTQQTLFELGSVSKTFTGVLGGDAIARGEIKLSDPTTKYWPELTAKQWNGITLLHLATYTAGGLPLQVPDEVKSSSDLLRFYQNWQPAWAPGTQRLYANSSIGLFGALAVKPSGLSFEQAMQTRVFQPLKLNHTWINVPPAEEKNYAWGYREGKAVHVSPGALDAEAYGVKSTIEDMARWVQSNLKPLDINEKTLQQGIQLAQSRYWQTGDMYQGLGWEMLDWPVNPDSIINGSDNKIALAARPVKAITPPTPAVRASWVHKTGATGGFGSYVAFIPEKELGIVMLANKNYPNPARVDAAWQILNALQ
SMILES,Potency,"activity change, negative = inhibition"
CCN(CC)C(=O)CSc1nc2ncc(Br)cc2[nH]1,"inconclusive [inhibitor, partial curve]",
Cc1ccc2nc(N(CCCN(C)C)C(=O)c3ccc4c(c3)CCCC4)sc2c1,,inactive: 3.73%
CCc1ccc(NC(=O)c2cnn(-c3ccccc3)c2C)cc1,"inconclusive [inhibitor, partial curve, poor fit]",
CCOc1ccc2[nH]c(=O)c(CN(CCO)C3(c4nnnn4C4CCCCC4)CCCCC3)cc2c1,"inconclusive [inhibitor, full curve, poor fit]",
COc1ccc(OC)c(S(=O)(=O)Nc2c(C)n(C)n(-c3ccccc3)c2=O)c1,"inconclusive [inhibitor, partial curve, poor fit]",
CC(=O)N1CCc2c(sc3c2c(=O)n(-c2ccc(C)cc2)c(=O)n3Cc2c(F)cccc2Cl)C1,,inactive: -1.36%
CCC(C(=O)OCC(=O)NC(=O)c1ccccc1OC)c1ccccc1 (centres undefined),"inconclusive [inhibitor, full curve, poor fit]",
Cc1nc2ncnn2c(C)c1C/C=C/c1ccccc1,"inconclusive [inhibitor, full curve, poor fit]",
O=C(Nc1nc(-c2ccco2)c(-c2ccco2)s1)C1CCC1,"inconclusive [inhibitor, full curve, poor fit]",
COc1cc(O)c(/C=N/NC(=O)c2ccncc2)c(OC)c1[N+](=O)[O-],,inactive: 4.08%
NC1=NC(=O)/C(=C/c2ccsc2)S1,,inactive: -0.512%
COc1ccc(-n2c(O)c(C(C)=NCc3ccco3)c(=O)[nH]c2=O)cc1,,inactive: -5.31%
COc1ccc(C2CC(=O)C(C=NCCN3CCN(C(C)=O)CC3)=C(O)C2)cc1 (centres undefined),"inconclusive [inhibitor, partial curve]",
CCOc1ccc(CN2CCN(C(=O)Cc3ccccc3)CC2)cc1,"inconclusive [inhibitor, partial curve, poor fit]",
CCOc1cc(CNC(=O)Cn2ncn3c(cc4cc(F)ccc43)c2=O)cc(OCC)c1OCC,,inactive: 18.7%
O=C(Nn1cnnc1)c1cc(Br)ccc1Cl,"inconclusive [inhibitor, full curve, poor fit]",
O=C(CNc1ccc2ccccc2c1)N/N=C/c1ccc([N+](=O)[O-])o1,"inconclusive [inhibitor, partial curve, poor fit]",
COc1ccc(C(=O)/C=C/c2ccccc2)c(OC)c1,,inactive: -0.839%
CCN(c1ccccc1)S(=O)(=O)c1ccc(Cl)c(NC(=O)CN2C(=O)NC3(CCCC3)C2=O)c1,,inactive: -6.41%
O=C(CSc1nnc2ccc(-c3ccc(F)cc3)nn12)NCC1CCCO1 (centres undefined),"inconclusive [inhibitor, single point]",
Cc1cccc(N2CCN(CC(=O)Nc3nccs3)CC2)c1C,"inconclusive [inhibitor, single point]",
COc1ccc(S(=O)(=O)NC2CCCCC2)c(C)c1C,"inconclusive [inhibitor, full curve]",
O=C(Nc1cccc(NC(=O)c2cccs2)c1)c1ccco1,,inactive: -5.64%

SMILES,Potency,"activity change, negative = inhibition"
O=C(NC(NC(=S)Nc1ccccc1Cl)C(Cl)(Cl)Cl)c1cccc(Cl)c1 (centres undefined),,inactive: -10.2%
Cc1nn(CC2CC2)c(=O)n1-c1ccccc1F,"inconclusive [inhibitor, full curve, poor fit]",
O=[N+]([O-])c1ccc(NC(=S)N2CCN(c3ccccc3)CC2)cc1,"inconclusive [inhibitor, partial curve, poor fit]",
COc1ccc(OC)c(NC(=O)Nc2nnc(N3CCC(C)CC3)s2)c1,"inconclusive [inhibitor, single point]",
NS(=O)(=O)c1ccc(NC(=O)COC(=O)CCNC(=O)NC23CC4CC(CC(C4)C2)C3)cc1,"inconclusive [inhibitor, full curve, poor fit]",
CCNc1nc(NC(C)C)nc(NS(=O)(=O)c2ccc(C)cc2)n1,"inconclusive [inhibitor, single point]",
O=C(O)c1ccc(Nc2nc(-c3ccc([N+](=O)[O-])cc3)nc3ccccc23)cc1,,inactive: -9.12%
O=C(CSc1nc(N2CCOCC2)nc(N2CCOCC2)n1)Nc1ccc(Cl)cc1Cl,"inconclusive [inhibitor, full curve]",
COc1ccc(C(=O)COC(=O)Cc2n[nH]c(=O)c3ccccc23)c(OC)c1,"inconclusive [inhibitor, partial curve, poor fit]",
O=[N+]([O-])c1ccc(OCCn2cnc3ccccc32)cc1,"inconclusive [inhibitor, full curve]",
CCOc1ccc(CNC(=O)CN2N=C(c3ccccc3)CCC2=O)cc1OC,,inactive: 0.591%
CN(Cc1cc(=O)[nH]c2ccccc12)C(=O)c1ccccc1,"inconclusive [inhibitor, full curve, poor fit]",
O=S(=O)(c1ccc(Br)cc1)N1CCCC1,"inconclusive [inhibitor, full curve, poor fit]",
O=C(NCc1ccc2c(c1)OCO2)C1CCCCC1,"inconclusive [inhibitor, partial curve]",
O=C(Nc1ccc(N2CCCC2)cc1)c1ccc(Br)cc1,"inconclusive [inhibitor, full curve]",
CCc1ccc(NCc2ccc(OC)c(Cn3ccnc3)c2)cc1,"inconclusive [inhibitor, full curve, poor fit]",
Cc1ccnc2nc(C(=O)Nc3ccc(N4CCOCC4)cc3)nn12,,inactive: -14.5%
CCOc1ccc(NC(=O)CS(=O)(=O)c2cn(CC)c3ccccc23)cc1,"inconclusive [inhibitor, full curve, poor fit]",
CC1(C)C(=O)Nc2ccccc2N1C(=O)COC(=O)/C=C/c1ccc(OC(F)F)cc1,"inconclusive [inhibitor, single point]",
O=C(COC(=O)Cc1n[nH]c(=O)c2ccccc12)Nc1ncc(Cl)cc1Cl,"inconclusive [inhibitor, full curve, poor fit]",
CC1CCC2(CC1)NC(=O)N(NC(=O)c1ccc(OC(C)C)cc1)C2=O (centres undefined),,inactive: 0%
CC(=O)NC1(c2nnnn2CCOC(=O)Nc2ccc(Cl)cc2)CCCC1,,inactive: 5.5%
C/C(=N/NC(=O)c1cccs1)c1ccc(NC(=O)COc2ccc(Cl)cc2Cl)cc1,"inconclusive [inhibitor, partial curve]",

SMILES,Potency,"activity change, negative = inhibition"
C=CCN1C2CCCC1CC(NC(=S)Nc1ccc(Cl)cc1)C2 (centres undefined),,inactive: -4.69%
N#CN=C(N)c1ccccc1,"inconclusive [inhibitor, single point]",
Cc1ccc(NC(=S)Nc2ccccn2)c(C)c1,,inactive: -0.582%
O=C(Nc1ccc(Cl)cc1)c1ccc(-n2cnnc2)cc1,,inactive: -2.95%
CC(=O)N1CCc2c(sc(NC(=O)Cc3ccc(F)cc3)c2C(N)=O)C1,,inactive: 0.55%
CC(NC(=O)C(C)N1C(=O)c2cccc([N+](=O)[O-])c2C1=O)c1ccccc1 (centres undefined),"inconclusive [inhibitor, partial curve, poor fit]",
COc1ccc(-n2nnnc2-c2cnc(N3CCCC3)nc2C(F)(F)F)cc1,"inconclusive [inhibitor, full curve, poor fit]",
Cc1onc(-c2ccccc2)c1C(=O)Nc1ccc(OC(C)C)cc1,"inconclusive [inhibitor, full curve, poor fit]",
COc1ccc(CC(=O)NC2CCN(CC(=O)Nc3ccc4c(c3)OCCO4)CC2)cc1OC,"inconclusive [inhibitor, partial curve]",
Cc1onc(-c2ccccc2Cl)c1C(=O)N1CCCCC1,,inactive: -2.56%
COC(=O)c1ccc2c(=O)n(Cc3ccc(C(=O)NC(C)C)cc3)c(=S)[nH]c2c1,,inactive: 0.929%
O=C(CCl)N1N=C(c2cccs2)CC1c1ccco1 (centres undefined),,inactive: 0.18%
COc1ccc(C(=O)N/N=C(\C)CC(=O)Nc2cccc(C(F)(F)F)c2)cc1,,inactive: 11.7%
CCOc1ccccc1N1CCN(Cc2ccc(OC)c(OC)c2)CC1,"inconclusive [inhibitor, single point]",
Cc1cc(C)n2nc(C(=O)N(C)c3c(N)n(Cc4ccccc4)c(=O)[nH]c3=O)nc2n1,"inconclusive [inhibitor, full curve]",
COCC(=O)N1CCC(Oc2ccc(C(=O)NC(C)c3nc(C)sc3C)cc2)CC1 (centres undefined),"inconclusive [inhibitor, full curve, poor fit]",
O=C(Cn1nnc(-c2ccc(S(=O)(=O)N3CCCC3)cc2)n1)Nc1ccccc1-n1cccc1,"inconclusive [inhibitor, partial curve, poor fit]",
Cc1ccc(NC(=O)Cc2nnc(SCC(=O)NC3CCCC3)n2C)cc1,"inconclusive [inhibitor, full curve, poor fit]",
O=C(OCC(=O)N1CCCC1=O)c1ccc(F)c(S(=O)(=O)N2CCOCC2)c1,"inconclusive [inhibitor, full curve, poor fit]",
CCCN1CCN(CCCNC(=O)C2CCCN(c3nc4ccc(OCC)cc4s3)C2)CC1 (centres undefined),"inconclusive [inhibitor, full curve, poor fit]",
Cc1ccc(Nc2c(-c3cccnc3)nc3ccc(Cl)cn23)cc1,,inactive: 11%
COc1cccc(-c2ccc3ncnc(NCc4cccc(F)c4)c3c2)c1,"inconclusive [inhibitor, full curve, poor fit]",
CC(C)CCOP(N)(=O)Oc1ccccc1 (centres undefined),,inactive: -5.11%
